Read counts are not given, so values of variants with three or more changes are uncertain.

B1: LINE1-mini (parent)
chain: GGCAGAGCUCAACACAGCGUGGCAAAGUGGCUGUGGCUAGACUGCC

The series covers variants of B1. Description: self-cleavage, relative activity (ratio to wild type); higher = more cleavage; in vitro, sequencing; the parent is a self-cleaving ribozyme.
As for G2U A11G C15U, the self-cleavage was 0.
Take G2U A4U A11U A12C U32A: the self-cleavage is 0.
Then G2U A4U G19A, with 0.05.
Take G2C U9C U28G: the self-cleavage was determined as 0.02.
For the variant G2U A4C C8G G44A, the self-cleavage was found to be 0.01.
In the case of G2U A6U A11G, the self-cleavage is 0.01.
G2C U9G A14G C15A: the self-cleavage stood at 0.48.
In the case of G2C U34G A41U C45A, the self-cleavage worked out at 0.03.
As for G2C U9A A25C A39C U43A, the self-cleavage amounted to 0.08.
Then G2U A4G G5U G21C C46U, with 0.02; and G2C G36C C37U, with 0.
Take G2U A4G G17A C18U U34C C37G: the self-cleavage worked out at 0.02.
Regarding G2C U20A G21C, the self-cleavage is 0.1.
Under G2U A4C C46U stands 0.1; under G2U A12C G21A A26U, 0.02; under G2U A12G G27C A41C U43C, 0.01.
As to G2U A4G G29U, the self-cleavage was 0.03.
As to G2U A4U G21A A41U C42A, the self-cleavage was 0.12.
For the variant G2C U38A C42G, the self-cleavage amounted to 0.21.
With G2U A4G A26C U28A, the self-cleavage stood at 0.04.
Regarding G2U A4G G17C G29U G30U G36A G40A, the self-cleavage is 0.04.
In the case of G2C U20A G29U A41C, the self-cleavage stood at 0.06.
Under G2C G36C A41G stands 0.04.
Then G2U A6G C18U, with 0.08; and G2U A6G C18G, with 0.04; and G2C U28C C31U G44U, with 0.03.
G2U A4U A6C A12C U28A: the self-cleavage is 0.02.
Turning to G2U A11G A12U C42A, the self-cleavage was 0.01.
G2U A4G G17C G19A C37U: the self-cleavage is 0.07.
Consider G2U A11C G27C U34C G35U G36U, for which the self-cleavage turned out to be 0.
Regarding G2C U9G C15U C31G U32G U43G, the self-cleavage turned out to be 0.
In the case of G2C U9G C15U G21A C46A, the self-cleavage came out at 0.03.
As to G2C U20C C31U, the self-cleavage was 0.04.
For the variant G2C U38C C42G, the self-cleavage came out at 0.21.
For G2C U9C A12G G22U U32A, the self-cleavage was found to be 0.03.
As to G2U A4C G44C, the self-cleavage worked out at 0.04.
Take G2U A4U A11G G36A: the self-cleavage was determined as 0.02.
Consider G2C U9C G21A G22C, for which the self-cleavage is 0.01.
Under G2U A11G A26U stands 0.02.
G2U A4C A6U C18U A39G: the self-cleavage amounted to 0.05.
On to G2U A12U C15U C18A, for which the self-cleavage was determined as 0.01.
For G2C U32G U38C, the self-cleavage was 0.06.
In the case of G2C U9G C13G, the self-cleavage worked out at 0.02.
As for G2U A4G C8G G22A, the self-cleavage turned out to be 0.01.
Turning to G2U A4C C8G C37A, the self-cleavage is 0.03.
As to G2U A4U A11U A16G G44A, the self-cleavage is 0.02.
On to G2C U9C A25U A41U, for which the self-cleavage came to 0.1.
Under G2U A12U C18U U20A G30U C31U A39U stands 0.01; under G2C U9G C23U U32A, 0.04.
Turning to G2C U38C A39C C45G C46A, the self-cleavage turned out to be 0.08.
In the case of G2U A4U G22C G27C, the self-cleavage was found to be 0.03.
Consider G2U A6G A16U G17C G21U A26U, for which the self-cleavage stood at 0.03.
As for G2U A6C U20G C23U, the self-cleavage worked out at 0.06.
Turning to G2U A4G C8G, the self-cleavage worked out at 0.58.
Consider G2U A11U G29U G44U, for which the self-cleavage turned out to be 0.01.
Regarding G2C U9C C10A A12C C18A A41G, the self-cleavage came to 0.
Turning to G2U A4G A39G, the self-cleavage came out at 0.02.
Regarding G2U A11C U28C U43A, the self-cleavage stood at 0.
Turning to G2U A6G C15U, the self-cleavage is 0.02.
Take G2U A6U C13G: the self-cleavage stood at 0.04.
As to G2U A6G G17A A24U G29U G36A U38A, the self-cleavage is 0.04.
Regarding G2U A12C C15G G30C, the self-cleavage worked out at 0.01.
For the variant G2C U9A G19A, the self-cleavage amounted to 0.02.
As to G2U A11C A12U G27U G33U A41G, the self-cleavage was 0.01.
Consider G2C U9A G29C, for which the self-cleavage is 0.03.
For the variant G2U A11C U20A A24U A25U G27U, the self-cleavage worked out at 0.01.
In the case of G2U A12C G35U A39U, the self-cleavage amounted to 0.03.
For the variant G2C U9A A25C A41G, the self-cleavage was 0.08.
As to G2C U9G A11U G22C G29C G33C A39C G40A, the self-cleavage was 0.
Under G2U A6C U20A G21A A25C C31U U34C stands 0.01; under G2U A6C C23A U38A, 0.01; under G2U A12C G36A U38C G40A, 0.01.
Then G2C U20A U32G G40A, with 0.06; and G2U A11G A14C C23U U34C, with 0.
Then G2U A6G G21U A39C, with 0.01.
On to G2U A4C U34G, for which the self-cleavage amounted to 0.01.
For G2U A4G G17U G29A G30A G44C, the self-cleavage stood at 0.06.
Regarding G2U A6C A16G G30U, the self-cleavage was 0.06.
For G2U A4C C23U G40A, the self-cleavage came out at 0.03.
Turning to G2C U9G A11U, the self-cleavage stood at 0.01.
Consider G2U A11U G22C G27U C46A, for which the self-cleavage amounted to 0.01.
Then G2U A11C C13U, with 0; and G2U A11U C13G C42G, with 0; and G2C U28A G40C, with 0.03.
In the case of G2U A12U C18U G19A A26U G35C, the self-cleavage amounted to 0.
Consider G2C U20A G27A, for which the self-cleavage came out at 0.
Under G2U A6G A39U stands 0.01; under G2U A6G C15G U34A G40U, 0.02.
For G2U A6C G7U A24U G35A C46U, the self-cleavage turned out to be 0.03.
On to G2U A12C A25C U32G, for which the self-cleavage was 0.01.
Regarding G2U A12C G22U, the self-cleavage amounted to 0.02.
As to G2U A6G C18U U34G U38C U43A, the self-cleavage was determined as 0.
Take G2U A4U G27C G33U: the self-cleavage was determined as 0.01.
With G2U A6C G22U C37A, the self-cleavage came to 0.02.
In the case of G2U A4U U28G G30C, the self-cleavage is 0.02.
For G2U A4C G40A C42U, the self-cleavage is 0.04.
For the variant G2U A11C G22U A24C C42A C45A, the self-cleavage worked out at 0.
Then G2U A4U G21A, with 0.08.
For G2U A4U A16C A39C, the self-cleavage worked out at 0.05.
Under G2U A12C A16G G19A A24G A25U stands 0.01; under G2U A4G C15A U34A G40C, 0.05; under G2C U9C C10U G17C C23U A24C G44A, 0.01.
For the variant G2C U9C A14C G19A, the self-cleavage amounted to 0.02.
Take G2U A4G G5U: the self-cleavage was 0.06.
Under G2U A11U G17C C18G U43A stands 0; under G2U A4G C10A A12U C13A G33C, 0.02.
Under G2U A11U C13U G17A G21U A39U stands 0.01.
With G2U A4U G5U A39G, the self-cleavage was 0.07.
Turning to G2U A4G G29C G30C U32A A39G C46U, the self-cleavage amounted to 0.03.
Under G2U A11U U20A A26G G40A stands 0.01.
Take G2U A4G G22A C37G U43G C45A: the self-cleavage came to 0.
With G2U A11U C18U G44U, the self-cleavage worked out at 0.02.
Regarding G2U A4U G29U, the self-cleavage turned out to be 0.07.
In the case of G2C U9C C23A A24U G27U, the self-cleavage is 0.02.
Then G2U A12C U32G, with 0; and G2C U9G C13G U20C G33U, with 0.04; and G2U A12G G30U U32A, with 0.02.
For the variant G2U A4G U34A, the self-cleavage came to 0.02.
Under G2C U32G G33A stands 0.03; under G2U A11G C18G A24G G33C G35U, 0.
Take G2U A11C A39U: the self-cleavage worked out at 0.02.
As to G2U A12C G27U, the self-cleavage was found to be 0.
Turning to G2C U9G C15G G17C, the self-cleavage stood at 0.02.
Take G2U A12G A14G U43A: the self-cleavage was determined as 0.03.
For G2U A11U G17A, the self-cleavage worked out at 0.01.
Then G2U A4G U9G U28A, with 0.02; and G2U A12U G17A, with 0.03.
Consider G2C G36A A41U U43A, for which the self-cleavage came to 0.03.
G2U A6C U32C: the self-cleavage is 0.01.
For G2U A4C G17U A24U C31A C37G, the self-cleavage was 0.17.
For G2C U34C G40C, the self-cleavage came to 0.1.
In the case of G2U A4U C13A G22C C42A C45G, the self-cleavage is 0.01.
For G2U A11C G17A U38G C42U C46G, the self-cleavage was 0.
Turning to G2C U20G C31U U34C, the self-cleavage is 0.
As for G2U A12G U43C, the self-cleavage was found to be 0.02.
Take G2C U9G U28C G30A G33A: the self-cleavage came to 0.
Then G2C U9A A12C, with 0.03; and G2U A11C G19C, with 0.02; and G2U A4G G7C U34G U38G, with 0.03.
With G2U A12C U43A, the self-cleavage was 0.01.
Turning to G2U A6G A16G A24G, the self-cleavage is 0.02.
Under G2U A12C C42U stands 0.
On to G2C U9G C15G C42G U43G, for which the self-cleavage was determined as 0.02.
Consider G2U A12C C23U G27U U32G, for which the self-cleavage is 0.02.
Turning to G2U A4U G33U C46U, the self-cleavage was 0.
As to G2C G35C C42U, the self-cleavage stood at 0.
Turning to G2U A12C A24U, the self-cleavage is 0.02.
Under G2U A11G G40C C46A stands 0; under G2C U28A U32A G33A C42U, 0.03.
In the case of G2U A11G G29A A41G, the self-cleavage was 0.
For G2U A4C C8G G35A, the self-cleavage is 0.05.
Turning to G2U A11C G22U C23U, the self-cleavage amounted to 0.07.
Regarding G2U A6C A25U G30A C37G, the self-cleavage turned out to be 0.02.
G2U A4C U9C C13U A26G: the self-cleavage came to 0.01.
G2U A11U C13A C15U G17U C37U: the self-cleavage was 0.01.
In the case of G2C U20C U28A C37U, the self-cleavage was 0.04.
Take G2U A6U U9A G27C G29C: the self-cleavage was found to be 0.1.
Regarding G2U A6C G21C G22A G27U, the self-cleavage was determined as 0.03.
Consider G2C U9C U20A, for which the self-cleavage is 0.02.
For the variant G2U A11U C18A G29A G30C G33U, the self-cleavage is 0.
G2U A6C G30C: the self-cleavage stood at 0.04.
Consider G2U A6C G30U, for which the self-cleavage stood at 0.17.
As to G2U A4G G5A G21U, the self-cleavage was determined as 0.06.
For the variant G2U A4U C13G G27C U32C, the self-cleavage came out at 0.07.
Regarding G2U A11U G33A, the self-cleavage came out at 0.01.
Regarding G2U A4G C37A C46A, the self-cleavage turned out to be 1.04.
Take G2U A4G G19U G21U A25U G27U C37A C42G U43G: the self-cleavage was found to be 0.
